The whole screen tested about 44,000 compounds, of which about 340 (0.77%) were called active. Not shown: some 5% with an inconclusive outcome. Calls follow the shape of the dose curve; as a rule, active = well fitted inhibition curve with a large enough effect; inconclusive = small, poorly fitted or top-dose-only effect; inactive = flat fitted curve, though single readings scatter. The list shows a part of the results.
Assay: Acumen qHTS Assay for Inhibitors of the mTORC1 Signaling Pathway in MEF (Tsc2-/-, p53-/-) Cells: Sytravon;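 also: plate controls were DMSO for no effect and rapamycin for full effect; nearly all actives have a fitted effect of over 50% in size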
Details: phospho-rpS6 immunofluorescence/PI, 24 h; series mostly up to 38.3 µM; activity change, negative = inhibition: at the top concentration
How it was run: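 Cell-based qHTS: Tsc2-/- p53-/- MEF, 24 h cpd, 37 °C; fix/perm, anti-phospho-S6 Alexa-488 + PI; Acumen 488 nm scan; pS6/PI ratio, % positive cells; rapamycin 7.5 nM = inhibition ref; PI count = viability.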

Activity change, negative = inhibition, inactive:
CC(C)(C)C1CCc2c(sc3nc(-c4cc5cc(Cl)ccc5oc4=O)[nH]c(=O)c23)C1 (stereo not given) 0%, Cc1ccc(NC(=O)Cn2nc(C(F)(F)F)c3c2CCCC3)cc1 -12.9%, Cc1ccc(S(=O)(=O)NCCc2nnc3ccc(SCC(=O)Nc4c(C)cc(C)cc4C)nn23)cc1 -2.5%, CCn1c(CNC(=O)c2ccc(OC)cc2)nnc1SCC(=O)Nc1cccc(C)c1 1.39%, Cc1ccc(S(=O)(=O)N2CCCc3cc(NC(=O)c4ccc(Cl)cc4)ccc32)cc1 17%, CCOc1ccc(CCNC(=O)c2c3c(nc4ccccc24)C(=O)N(C2CCCCC2)C3)cc1 -3.34%, COC(=O)c1c(NC(=O)c2cc(=O)c3cc(C)cc(C)c3o2)sc2c1CCC2 -2.74%, CCOC(=O)c1ccc(NC(=O)c2nc(SCc3ccc(F)cc3)ncc2Cl)cc1 -6.5%, COc1ccccc1NC(=O)c1cc2cc3ccc(OC)c(Cl)c3nc2s1 -5.66%, O=C(NCCc1ccccc1Cl)c1cc2ccccn2n1 -4.11%, Cc1ccc(CC(=O)NCc2nc(-c3ccccc3)no2)cc1 -3.26%, CCCCn1c(=O)c2oc3ccccc3c2n(Cc2ccc(C)cc2)c1=O 2.37%, Cc1cc(SCC(=O)Nc2ccc(F)cc2F)nc(=O)[nH]1 4.04%, O=C(Cn1cc(S(=O)(=O)Cc2ccccc2F)c2ccccc21)Nc1ccc(F)c(Cl)c1 4.96%, COc1ccc(CNc2ncnc3c2c(-c2ccccc2)cn3-c2ccc(C)c(Cl)c2)cc1 10.8%, COc1cccc(C(=O)Nc2nc(-c3nnn(-c4cccc(Cl)c4C)c3C)ns2)c1 6.1%, COc1ccc2c(CNCc3ccco3)c(C(=O)O)n(Cc3cccc(F)c3)c2c1 -8.99%, CCCN(CCC)C(=O)C1CCN(c2cc(C)nc3c(-c4ccc(Cl)cc4)c(C)nn23)CC1 -2.31%, Cn1c(NCCCO)nc2c1c(=O)n(Cc1cccc(F)c1)c(=O)n2C 12.1%, COc1ccc(C(=O)Nc2ccc(-c3nc4ccccc4s3)c(Cl)c2)cc1Cl -12.3%, O=C(NCCO)c1ccc(-c2nnc(Nc3ccc(OC(F)(F)Cl)cc3)c3ccccc23)cc1 -13.9%, CCCc1nn2c(=O)cc(COC(=O)c3ccc4c(c3)OCO4)nc2s1 3.08%, Cc1cc2nc(-c3ccc(OCc4ccccc4F)cc3)cc(C(F)(F)F)n2n1 2.67%, Cc1ccc(C)c(NC(=O)c2oc(=O)c3ccccc3c2-c2ccccc2)c1 -0.454%, Cc1ccc(-c2c(C(=O)Nc3ccccc3F)oc(=O)c3ccccc23)cc1 4.39%, Cc1ccc(C)c(Cn2c(SCC(=O)NCc3ccccc3)nc3ccccc32)c1 0%, CCOC(=O)c1cccc(NC(=O)C2=C(C)C(=O)OC23CCCCC3)c1 -0.417%, Cc1ccc(C)c(N2CCN(C(=O)Cn3cnc4nc5c(cc4c3=O)CCCC5)CC2)c1 0.141%, Cn1c(NCCN)nc2c1c(=O)n(Cc1ccccc1)c(=O)n2C 9.41%, Cc1ccc2c(c1)c(N1CCCC1=O)c(C(=O)Nc1ccc(F)cc1F)n2C -11.8%, Cc1cccc(N(C)c2ccc3cc(S(=O)(=O)N4CCCC4)ccc3n2)c1 -2.65%, CCC(=O)N1CCc2cc(S(=O)(=O)NC(Cc3ccccc3)C(=O)Nc3cccc(OC)c3)ccc21 (stereo not given) -0.999%, CCOC(=O)c1cc(S(=O)(=O)N2CCN(c3ccc(C)cc3C)CC2)[nH]n1 0.0904%, Cc1ccc(C)c(NC(=O)CSC2=Nc3ccccc3N=C(c3ccc(F)cc3)C2)c1 -4.56%, Cc1ccc(-c2nnc3c4ccccc4c(C)nn23)cc1NC(=O)c1ccccc1Cl 5.78%, COc1cccc(N2CCN(c3ncnc4onc(-c5ccc(F)cc5)c34)CC2)c1 3.68%, O=C(C1CCCN(S(=O)(=O)c2cccc3nsnc23)C1)N1CCN(c2ccccc2Cl)CC1 (stereo not given) -0.0431%, O=C(CCCCCn1c(=O)[nH]c2ccccc2c1=O)NCc1ccccc1 1.01%, Cc1nc2scc(C)n2c(=O)c1S(=O)(=O)N1CCN(c2cccc(C(F)(F)F)c2)CC1 -23.5%, CN(C)c1ccc(NC(=O)Cn2cc(S(=O)(=O)Cc3cccc(Cl)c3)c3ccccc32)cc1 -0.105%, CC(=O)c1cc(-c2ccccc2)n(CCC(=O)Nc2ccc(C)cc2C)c1C -4.55%, COc1ccc(N2CC(NC(=O)c3cc4ccccc4o3)CC2=O)cc1 (stereo not given) -2.39%, Cc1cc(C(=O)NCc2ccc(Cl)cc2)c2c(C)nn(-c3ccccc3)c2n1 1.02%, COC(=O)c1c(NC(=O)Nc2ccc(Cl)cc2)sc(C)c1C 1.57%, COc1ccccc1CNC(=O)CCC1N=C2c3ccccc3N=C(SCc3ccc(C)cc3)N2C1=O (stereo not given) -2.02%, CS(=O)(=O)N1CCc2cc(C(=O)N3CCN(c4ccccc4)CC3)ccc21 0.404%, CC1CCC(N2CC(=O)N(C3CCCCC3)C(c3ccc(F)cc3)C2=O)CC1 (stereo not given) 4.98%, Cc1ccc2c(c1)N(C(=O)Nc1cccc(C)c1C)CCO2 -6.04%, COc1ccc(CCC(=O)NCCc2csc(-c3ccc(C(F)(F)F)cc3)n2)cc1 -28.3%, CCCc1nnc(NC(=O)c2cc(=O)c3cc(Cl)ccc3o2)s1 5.95%, COc1ccccc1NC(=O)NCc1cccn1Cc1ccccc1 3.87%, Cc1cc(Br)ccc1NC(=O)c1ccc(NS(=O)(=O)c2c(C)noc2C)cc1 -5.25%, COc1cccc(-c2nc(SCC(=O)NC3CCCC3)c(-c3ccccc3)[nH]2)c1 -16.7%, COc1ccc(NC(=O)Cn2cnc3ccc(S(=O)(=O)N4CCC(C)CC4)cc3c2=O)cc1OC 2.59%, CCOc1ccc(NC(=O)/C=C\C(=O)N(c2ccc(C(C)C)cc2)C(C(=O)NCc2ccco2)c2ccc(F)cc2)cc1 (stereo not given) -2.44%, O=C(CSc1nc(-c2cccs2)nc2cc(=O)[nH]n12)Nc1ccccc1F -11.3%, CCCOc1ccc(C(=O)Nc2ccc(Cl)c(-c3nc4ncccc4o3)c2)cc1 3.39%, CCOc1ccc(CCNC(=O)CSc2cc(=O)n(C)c3cc(Cl)ccc23)cc1OCC 2.57%, Cc1c(-c2nsc(NC(=O)c3cccc(Cl)c3)n2)nnn1-c1ccccc1C(F)(F)F -8.58%, CSc1ccc(CCNC(=O)CN2C(=O)c3cccnc3Oc3ccc(Cl)cc32)cc1 -4.67%, CCOc1ccc(CCNC(=O)CCc2c(C)nc3cc(-c4ccccc4OC)nn3c2C)cc1 -4.23%, Nc1c(-c2nc(-c3ccc4c(c3)OCO4)cs2)c2ccccn2c1C(=O)c1ccccc1 -0.221%, CCCCn1c(NCc2cc(Cl)ccc2O)nc2ccccc21 -0.495%, Cc1ccc(C)c(OCC(=O)Nc2ccc(S(=O)(=O)Nc3onc(C)c3C)cc2)c1C 1.36%, CCC(C(=O)Nc1ccccc1OC)n1nc(C)c2sc3ccccc3c2c1=O (stereo not given) 0.438%, CC(Sc1cn(CCNC(=O)c2ccccc2F)c2ccccc12)c1ccccc1 (stereo not given) -2.34%, Cc1ccc(NC(=O)c2c(C)oc3nc(C)nc(N4CCCC4)c23)c(C)c1 7.39%, CCN(CCCNC(=O)CSc1cc(=O)n(CC)c2ccccc12)c1cccc(C)c1 1.73%, CCOc1ccc(CCNC(=O)c2ccc(CS(=O)Cc3cccc(Cl)c3)o2)cc1 (stereo not given) -3.54%, COC(=O)c1ccc(NC(=O)CSc2ncc3c(n2)-c2cc(Cl)ccc2N(Cc2ccccc2)S3(=O)=O)cc1 -8.94%, COc1ccc(NC(=O)c2c(NCc3sccc3C)sc3c2CCCCC3)c(OC)c1 -24.3%, Cc1ccc2c(=O)c(C(=O)c3ccc(Cl)cc3)cn(CC(=O)NC3CCCCC3)c2n1 -5.49%, O=S(=O)(c1ccc(F)cc1)N(Cc1nc(-c2ccc(Cl)cc2)no1)C1CCCCC1 -13.5%, COc1ccc(Br)cc1C(=O)Nc1ccc(-c2nc3cc(Cl)ccc3o2)cc1 1.73%, Cc1c(NC(=O)c2cccc3c(Cl)cccc23)cccc1-c1nc2ccccc2o1 1.08%, O=C(CCS(=O)(=O)c1cc(Br)cc2c1N(C(=O)C1CC1)CC2)NCc1ccccc1Cl 0.619%, COc1ccc2c(c1)c(=O)c(S(=O)(=O)c1ccc(C)cc1)cn2Cc1ccccc1C -4.54%, COC(=O)c1sccc1S(=O)(=O)N(CC(=O)Nc1c(C)cccc1C)c1ccc(C)c(C)c1 -14.1%, CCOC(=O)N1CCc2c(sc3c2c(=O)n(Cc2ccccc2)c(=O)n3CC(=O)Nc2ccc(C)c(C)c2)C1 -7.79%, CCC(C(=O)Nc1cc(F)ccc1F)n1nc(-c2cc(C)ccc2C)ccc1=O (stereo not given) -4.28%, Cc1ccc(NC(=O)CCC(=O)N2CCSc3ccccc32)cc1Cl -18.5%, Cc1c(Cl)cccc1NC(=O)Nc1nnc(N(C)Cc2ccccc2)s1 1.95%, Cc1c(NC(=O)C(C)(C)Oc2ccc(Cl)cc2)cccc1-c1nc2ncccc2o1 -0.0391%, CC1=C(C(=O)NCc2ccccc2C)C2(CCCCC2)OC1=O -5.46%, CC(=O)c1ccc(NC(=O)Cn2cc(S(=O)(=O)Cc3ccccc3Cl)c3ccccc32)cc1 -3.22%, O=C(COc1ccccc1[N+](=O)[O-])Nc1cccc(-c2nc3ccccc3s2)c1 -24%, COc1ccc(N(CC(=O)Nc2cc(C)ccc2C)S(=O)(=O)c2ccc(OC)c(OC)c2)cc1 3.89%, Cn1c(=O)c2c(nc(Oc3ccccc3)n2Cc2c(Cl)cccc2Cl)n(C)c1=O -2.83%, COCCCNC(=O)CSc1nc2cc3c(cc2c(=O)n1CCCC(=O)NCc1ccc(OC)cc1)OCO3 -15.7%, CCOc1ccc(NC(=O)CN2C(=O)COc3ccc(S(=O)(=O)NC4CCCC4)cc32)cc1 0.841%, COc1cc(NC(=O)CSc2nc3nc(C)c(Cc4ccc(C)cc4)c(C)n3n2)cc(OC)c1OC 8.45%, O=C(Nc1ccc(F)cc1F)c1ccc2c(O)c(S(=O)(=O)c3ccc(Cl)cc3)c(=O)[nH]c2c1 3.36%, CCc1ccc(C2c3c(oc4ccc(F)cc4c3=O)C(=O)N2c2nc(C)c(C(=O)OC)s2)cc1 (stereo not given) 4.58%, O=C(Nc1c(C(=O)O)oc2ccccc12)c1ccc(C(F)(F)F)cc1 -4.35%, O=C(CSc1cn(CC(=O)N2CCOCC2)c2ccccc12)Nc1ccccc1 0.814%

Reference: PubChem BioAssay AID493208 (National Center for Advancing Translational Sciences (NCATS), 2011)
